This passage reports binding results from PMC6430810 (2019).

The chains behind the UniProt entries cited, without tags or fusion partners.
UniProt P55884: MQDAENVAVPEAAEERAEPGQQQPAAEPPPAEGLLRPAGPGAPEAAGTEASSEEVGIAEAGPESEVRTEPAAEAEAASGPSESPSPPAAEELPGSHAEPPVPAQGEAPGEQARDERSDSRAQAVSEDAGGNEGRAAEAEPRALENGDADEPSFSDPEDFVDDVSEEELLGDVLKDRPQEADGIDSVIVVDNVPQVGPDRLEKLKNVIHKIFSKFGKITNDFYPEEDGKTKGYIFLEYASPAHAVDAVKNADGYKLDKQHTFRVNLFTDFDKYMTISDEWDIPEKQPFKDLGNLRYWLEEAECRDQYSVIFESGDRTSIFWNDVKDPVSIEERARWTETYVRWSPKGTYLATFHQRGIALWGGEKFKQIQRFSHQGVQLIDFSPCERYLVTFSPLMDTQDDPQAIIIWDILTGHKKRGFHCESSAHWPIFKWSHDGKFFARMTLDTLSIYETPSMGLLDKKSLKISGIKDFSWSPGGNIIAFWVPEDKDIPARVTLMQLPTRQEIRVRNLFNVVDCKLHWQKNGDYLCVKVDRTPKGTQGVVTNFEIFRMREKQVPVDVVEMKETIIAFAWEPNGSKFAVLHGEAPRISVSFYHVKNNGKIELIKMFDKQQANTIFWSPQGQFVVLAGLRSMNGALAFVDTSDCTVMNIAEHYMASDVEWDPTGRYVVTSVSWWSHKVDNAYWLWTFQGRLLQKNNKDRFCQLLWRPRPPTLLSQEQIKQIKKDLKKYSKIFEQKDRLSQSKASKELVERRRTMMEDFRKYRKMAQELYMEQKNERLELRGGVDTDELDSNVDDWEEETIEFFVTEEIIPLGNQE
UniProt O15371: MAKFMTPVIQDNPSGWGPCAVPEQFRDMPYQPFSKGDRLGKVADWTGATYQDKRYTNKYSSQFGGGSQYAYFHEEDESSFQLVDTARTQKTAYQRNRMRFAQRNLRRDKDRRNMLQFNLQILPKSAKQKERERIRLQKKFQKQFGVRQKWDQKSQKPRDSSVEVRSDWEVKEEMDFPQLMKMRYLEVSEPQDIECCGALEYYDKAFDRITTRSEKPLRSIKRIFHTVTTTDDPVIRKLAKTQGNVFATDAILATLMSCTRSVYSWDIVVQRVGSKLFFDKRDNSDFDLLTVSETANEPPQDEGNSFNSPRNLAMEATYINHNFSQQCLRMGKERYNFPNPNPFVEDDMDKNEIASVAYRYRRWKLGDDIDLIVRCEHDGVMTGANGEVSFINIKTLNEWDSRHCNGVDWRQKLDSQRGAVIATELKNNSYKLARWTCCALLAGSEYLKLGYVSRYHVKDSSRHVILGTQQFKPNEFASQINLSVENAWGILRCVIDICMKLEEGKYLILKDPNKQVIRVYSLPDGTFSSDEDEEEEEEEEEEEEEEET
UniProt O00303: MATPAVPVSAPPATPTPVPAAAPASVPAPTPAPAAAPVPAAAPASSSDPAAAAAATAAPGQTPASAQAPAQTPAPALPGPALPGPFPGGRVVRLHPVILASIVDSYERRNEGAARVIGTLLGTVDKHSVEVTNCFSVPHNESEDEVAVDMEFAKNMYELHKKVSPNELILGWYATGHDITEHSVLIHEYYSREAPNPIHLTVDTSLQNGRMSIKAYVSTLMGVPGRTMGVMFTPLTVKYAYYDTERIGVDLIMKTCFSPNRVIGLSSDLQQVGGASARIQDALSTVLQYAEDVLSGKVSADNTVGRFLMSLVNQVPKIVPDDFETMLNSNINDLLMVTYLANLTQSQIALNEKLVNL
UniProt Q9Y262: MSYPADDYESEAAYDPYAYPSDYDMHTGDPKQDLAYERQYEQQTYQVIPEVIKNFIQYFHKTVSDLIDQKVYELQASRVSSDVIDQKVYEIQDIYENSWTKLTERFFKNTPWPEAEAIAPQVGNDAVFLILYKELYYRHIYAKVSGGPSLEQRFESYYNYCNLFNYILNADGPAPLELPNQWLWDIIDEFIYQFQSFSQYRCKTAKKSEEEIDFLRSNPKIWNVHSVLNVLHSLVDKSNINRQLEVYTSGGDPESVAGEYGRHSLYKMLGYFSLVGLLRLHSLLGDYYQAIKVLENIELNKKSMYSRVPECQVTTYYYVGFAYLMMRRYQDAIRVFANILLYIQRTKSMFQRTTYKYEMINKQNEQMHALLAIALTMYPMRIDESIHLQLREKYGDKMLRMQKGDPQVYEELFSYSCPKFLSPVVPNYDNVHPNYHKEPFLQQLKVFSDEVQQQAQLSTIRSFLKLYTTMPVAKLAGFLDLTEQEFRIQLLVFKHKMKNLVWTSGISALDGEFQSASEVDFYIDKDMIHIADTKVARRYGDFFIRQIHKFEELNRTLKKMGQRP
UniProt P60842: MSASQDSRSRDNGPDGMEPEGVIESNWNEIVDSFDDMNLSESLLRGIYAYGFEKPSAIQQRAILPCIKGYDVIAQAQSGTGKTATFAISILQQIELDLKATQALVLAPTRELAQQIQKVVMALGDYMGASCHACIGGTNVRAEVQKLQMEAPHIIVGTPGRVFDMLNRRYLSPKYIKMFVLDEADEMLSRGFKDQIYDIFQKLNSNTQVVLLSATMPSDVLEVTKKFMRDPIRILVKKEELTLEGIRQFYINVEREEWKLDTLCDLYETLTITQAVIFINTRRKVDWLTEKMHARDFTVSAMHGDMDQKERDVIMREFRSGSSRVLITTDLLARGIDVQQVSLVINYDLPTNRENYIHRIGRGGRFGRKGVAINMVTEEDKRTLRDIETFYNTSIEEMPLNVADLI
UniProt Q8N5X7: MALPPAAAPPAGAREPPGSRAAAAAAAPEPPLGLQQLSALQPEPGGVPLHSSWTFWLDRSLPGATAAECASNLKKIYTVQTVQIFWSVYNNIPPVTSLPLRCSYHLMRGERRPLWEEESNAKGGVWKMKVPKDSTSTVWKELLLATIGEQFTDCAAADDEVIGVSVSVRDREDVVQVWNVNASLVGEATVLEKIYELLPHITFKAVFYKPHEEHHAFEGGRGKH
UniProt P06730: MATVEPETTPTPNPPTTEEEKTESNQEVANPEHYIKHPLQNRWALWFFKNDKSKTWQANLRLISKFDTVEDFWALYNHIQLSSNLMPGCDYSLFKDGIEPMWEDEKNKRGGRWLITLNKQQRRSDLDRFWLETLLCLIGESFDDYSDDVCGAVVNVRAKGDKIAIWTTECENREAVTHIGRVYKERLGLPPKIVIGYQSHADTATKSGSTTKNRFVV

Experiment [1] deals with T1, GST-TRS (human, from E. coli) (human) (UniProt P26639).
T1 sequence: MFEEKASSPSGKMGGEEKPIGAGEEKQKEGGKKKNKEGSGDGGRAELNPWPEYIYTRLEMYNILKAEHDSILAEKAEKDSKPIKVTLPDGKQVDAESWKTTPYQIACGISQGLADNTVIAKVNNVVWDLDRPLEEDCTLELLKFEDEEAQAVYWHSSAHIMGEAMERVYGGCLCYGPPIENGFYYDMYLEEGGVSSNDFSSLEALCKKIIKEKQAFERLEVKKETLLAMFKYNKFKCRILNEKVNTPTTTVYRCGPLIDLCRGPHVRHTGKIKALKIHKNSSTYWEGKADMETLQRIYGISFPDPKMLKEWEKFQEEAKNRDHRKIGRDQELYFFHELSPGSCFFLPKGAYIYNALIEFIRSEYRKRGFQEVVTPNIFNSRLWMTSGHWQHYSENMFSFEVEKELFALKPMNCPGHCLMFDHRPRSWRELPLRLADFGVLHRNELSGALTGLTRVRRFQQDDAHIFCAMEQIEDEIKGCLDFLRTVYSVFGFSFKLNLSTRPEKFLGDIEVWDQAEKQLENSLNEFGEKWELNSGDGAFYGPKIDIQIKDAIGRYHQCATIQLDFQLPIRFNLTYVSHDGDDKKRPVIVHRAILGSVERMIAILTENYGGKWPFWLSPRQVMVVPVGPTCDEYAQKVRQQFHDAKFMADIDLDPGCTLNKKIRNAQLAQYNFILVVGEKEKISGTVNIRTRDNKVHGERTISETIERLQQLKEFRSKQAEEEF
Nature of the experiment: pull-down; purified GST-TRS on glutathione-Sepharose incubated with 293T lysates holding FLAG-tagged proteins, 4 h at 4 °C; PBS with 0.2% NP-40, 5% glycerol, 1 mM EDTA, 1 mM DTT; anti-FLAG immunoblot; only the target purified. A general note: A western blot detects proteins with antibodies after separation by electrophoresis.

Experiment [2] addresses T2, human threonyl-tRNA synthetase, Strep-tagged (TRS-Strep) (human) (UniProt P26639).
T2 sequence: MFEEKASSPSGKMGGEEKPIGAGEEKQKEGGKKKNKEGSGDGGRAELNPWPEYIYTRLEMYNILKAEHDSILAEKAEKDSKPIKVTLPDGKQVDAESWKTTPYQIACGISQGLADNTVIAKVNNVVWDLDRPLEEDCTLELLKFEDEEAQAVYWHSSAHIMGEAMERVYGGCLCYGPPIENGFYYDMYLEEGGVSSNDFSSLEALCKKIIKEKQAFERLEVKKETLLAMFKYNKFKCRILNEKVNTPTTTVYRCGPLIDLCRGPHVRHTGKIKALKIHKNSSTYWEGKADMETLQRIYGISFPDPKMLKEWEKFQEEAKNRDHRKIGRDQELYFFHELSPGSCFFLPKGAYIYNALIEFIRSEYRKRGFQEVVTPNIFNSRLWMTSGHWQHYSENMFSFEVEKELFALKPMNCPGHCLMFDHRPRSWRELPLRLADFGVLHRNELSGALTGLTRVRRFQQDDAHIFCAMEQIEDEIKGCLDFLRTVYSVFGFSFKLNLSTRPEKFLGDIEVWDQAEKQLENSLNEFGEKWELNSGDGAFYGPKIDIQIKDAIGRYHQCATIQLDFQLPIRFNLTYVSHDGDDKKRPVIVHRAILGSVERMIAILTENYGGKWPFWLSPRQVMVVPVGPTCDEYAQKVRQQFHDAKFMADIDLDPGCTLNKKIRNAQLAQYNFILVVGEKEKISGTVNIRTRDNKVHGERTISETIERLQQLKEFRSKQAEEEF
Nature of the experiment: pull-down; TRS-Strep co-expressed with FLAG-tagged proteins in 293T; pulled down with Strep-Tactin beads; anti-FLAG immunoblot.

In experiment [3] the target is T3, Myc-TRS (human, wild type) (human) (UniProt P26639).
T3 sequence: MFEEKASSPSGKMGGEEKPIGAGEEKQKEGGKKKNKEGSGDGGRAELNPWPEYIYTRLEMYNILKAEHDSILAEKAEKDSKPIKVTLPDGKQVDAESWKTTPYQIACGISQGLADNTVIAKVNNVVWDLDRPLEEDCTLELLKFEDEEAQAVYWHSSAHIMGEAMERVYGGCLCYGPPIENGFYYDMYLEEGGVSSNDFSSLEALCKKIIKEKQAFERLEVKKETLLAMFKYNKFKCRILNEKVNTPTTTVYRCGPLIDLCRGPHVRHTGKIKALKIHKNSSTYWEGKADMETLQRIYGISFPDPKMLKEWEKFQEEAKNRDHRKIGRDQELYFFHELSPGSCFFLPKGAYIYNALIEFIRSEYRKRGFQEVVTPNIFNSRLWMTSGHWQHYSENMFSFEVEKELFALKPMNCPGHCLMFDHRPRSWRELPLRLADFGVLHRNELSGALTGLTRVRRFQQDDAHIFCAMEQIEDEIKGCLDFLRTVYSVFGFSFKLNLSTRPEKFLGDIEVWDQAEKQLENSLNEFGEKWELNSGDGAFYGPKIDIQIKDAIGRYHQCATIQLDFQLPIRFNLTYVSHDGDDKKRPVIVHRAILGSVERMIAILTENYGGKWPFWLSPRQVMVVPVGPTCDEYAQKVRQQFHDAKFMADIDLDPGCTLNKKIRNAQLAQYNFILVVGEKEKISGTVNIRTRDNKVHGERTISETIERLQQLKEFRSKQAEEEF
Nature of the experiment: co-IP; Myc-TRS and HA-4EHP (or other tagged proteins) co-expressed in 293T; anti-Myc or anti-HA immunoprecipitation; tag-specific immunoblot.

In experiment [4] the target is T4, TRS-VN (human TRS fused to the Venus N-domain) (human) (UniProt P26639).
T4 sequence: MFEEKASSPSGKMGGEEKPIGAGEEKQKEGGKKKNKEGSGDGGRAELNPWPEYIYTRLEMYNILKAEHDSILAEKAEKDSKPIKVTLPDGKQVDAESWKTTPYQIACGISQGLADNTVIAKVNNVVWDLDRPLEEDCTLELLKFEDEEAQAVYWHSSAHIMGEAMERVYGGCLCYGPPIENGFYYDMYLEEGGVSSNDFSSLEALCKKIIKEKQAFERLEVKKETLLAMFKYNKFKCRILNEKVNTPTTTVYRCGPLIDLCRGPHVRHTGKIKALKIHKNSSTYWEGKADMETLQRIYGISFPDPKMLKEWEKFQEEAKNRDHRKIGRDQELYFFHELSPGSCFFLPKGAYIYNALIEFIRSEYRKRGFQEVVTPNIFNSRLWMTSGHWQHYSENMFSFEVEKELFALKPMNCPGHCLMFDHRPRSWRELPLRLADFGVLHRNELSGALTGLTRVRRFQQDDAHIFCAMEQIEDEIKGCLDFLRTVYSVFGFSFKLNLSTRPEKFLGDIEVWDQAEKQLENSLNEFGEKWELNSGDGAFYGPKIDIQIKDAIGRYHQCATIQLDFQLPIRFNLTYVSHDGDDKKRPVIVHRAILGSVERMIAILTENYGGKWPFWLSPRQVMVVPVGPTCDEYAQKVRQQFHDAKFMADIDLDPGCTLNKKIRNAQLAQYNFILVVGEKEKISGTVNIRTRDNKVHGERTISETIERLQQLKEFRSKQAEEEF
The experiment is described as follows: split reporter; BiFC with Venus; pBiFC-VN173-ARSs co-transfected with pBiFC-VC155-eIF4E isoforms in CHO cells; fluorescence and confocal microscopy.

Results are given in words; binding and its absence hold for the method and conditions named. In cells and extracts the contact can be indirect. Some results given as binding are weak or reduced against the parent protein; the word gives no strength. Tags and fused reporters may be left off the sequences shown.

Take “FLAG-tagged eIF3 subunit B (human) (from UniProt P55884 1-814)”: in experiment [1], the binding result is “binds”. Same read-out and setting: in the case of “FLAG-tagged eIF3 subunit D (human) (from UniProt O15371 1-548)” it was “binds”. Still for that read-out and setting: next, “FLAG-tagged eIF3 subunit F (human) (from UniProt O00303 1-357)”: “binds”. The same measure, in the same setting: in the case of “FLAG-tagged eIF3 subunit L (human) (from UniProt Q9Y262 1-564)” it was “binds”.

Turning to “eIF4A-FLAG (human eIF4A1) (from UniProt P60842 1-406) (enzyme)”, the binding entry in experiment [1], in experiment [2] and in experiment [3] was “binds” in each case. For the substance “eIF4E3-FLAG (human) (from UniProt Q8N5X7 1-224)”, in experiment [2], the binding entry is listed as “no binding”. “eIF4E3-VC (eIF4E3 fused to the Venus C-domain) (from UniProt Q8N5X7 1-224)”: the binding result in experiment [4] is given as “no binding”. Take “eIF4E-FLAG (human eIF4E1) (from UniProt P06730 1-217)”: the binding entry in experiment [2] is recorded as “no binding”. Turning to “eIF4E-VC (eIF4E1 fused to the Venus C-domain) (from UniProt P06730 1-217)”, in experiment [4], the binding result was “no binding”.
